According to PMC2276093:
These are yes or no findings as the source states them, for the method shown. In cells and extracts the contact can be indirect. Some binding calls cover weakened binding; strength is not graded here. Each block holds one molecule with its values, some of them ahead of it.

Amino acid sequences for entries named in this document (tags omitted). Residues count along the entry.
UniProt P09055, residues 21-798: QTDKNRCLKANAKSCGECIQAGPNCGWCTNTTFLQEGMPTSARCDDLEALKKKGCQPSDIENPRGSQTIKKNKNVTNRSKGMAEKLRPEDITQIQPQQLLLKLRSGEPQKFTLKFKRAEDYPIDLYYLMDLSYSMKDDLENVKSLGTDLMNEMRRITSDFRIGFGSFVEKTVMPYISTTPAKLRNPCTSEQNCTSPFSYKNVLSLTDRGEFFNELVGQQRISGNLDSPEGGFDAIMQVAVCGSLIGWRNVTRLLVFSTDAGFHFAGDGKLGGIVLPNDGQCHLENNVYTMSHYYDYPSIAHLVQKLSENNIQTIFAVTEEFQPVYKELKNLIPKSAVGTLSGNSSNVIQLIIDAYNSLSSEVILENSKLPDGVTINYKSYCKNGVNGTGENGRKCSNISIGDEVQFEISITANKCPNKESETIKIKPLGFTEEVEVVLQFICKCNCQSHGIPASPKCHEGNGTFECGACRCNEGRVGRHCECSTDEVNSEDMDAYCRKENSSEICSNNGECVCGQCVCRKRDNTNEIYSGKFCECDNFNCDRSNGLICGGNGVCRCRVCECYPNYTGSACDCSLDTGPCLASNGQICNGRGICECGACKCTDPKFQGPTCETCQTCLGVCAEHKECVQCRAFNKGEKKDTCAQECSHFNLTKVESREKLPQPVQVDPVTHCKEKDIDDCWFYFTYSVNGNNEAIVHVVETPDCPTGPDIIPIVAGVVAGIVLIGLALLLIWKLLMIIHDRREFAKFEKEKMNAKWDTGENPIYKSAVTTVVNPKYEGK

Columns and labels:
[1] = molecular target: T1, integrin a4 subunit (uncleaved, a4 150) (mouse (endogenous in TK1 and 38B9)) (UniProt Q00651); assay: co-IP; surface-iodinated 38B9 cells, 1% NP-40 lysis buffer; precleared, undepleted lysate precipitated with SG31- or PS/2-coupled Affi-gel 10 beads; SDS-PAGE (7.5%) reducing, autoradiography; bands named by size
T1 sequence (chain, surface radioiodinated (lactoperoxidase method)): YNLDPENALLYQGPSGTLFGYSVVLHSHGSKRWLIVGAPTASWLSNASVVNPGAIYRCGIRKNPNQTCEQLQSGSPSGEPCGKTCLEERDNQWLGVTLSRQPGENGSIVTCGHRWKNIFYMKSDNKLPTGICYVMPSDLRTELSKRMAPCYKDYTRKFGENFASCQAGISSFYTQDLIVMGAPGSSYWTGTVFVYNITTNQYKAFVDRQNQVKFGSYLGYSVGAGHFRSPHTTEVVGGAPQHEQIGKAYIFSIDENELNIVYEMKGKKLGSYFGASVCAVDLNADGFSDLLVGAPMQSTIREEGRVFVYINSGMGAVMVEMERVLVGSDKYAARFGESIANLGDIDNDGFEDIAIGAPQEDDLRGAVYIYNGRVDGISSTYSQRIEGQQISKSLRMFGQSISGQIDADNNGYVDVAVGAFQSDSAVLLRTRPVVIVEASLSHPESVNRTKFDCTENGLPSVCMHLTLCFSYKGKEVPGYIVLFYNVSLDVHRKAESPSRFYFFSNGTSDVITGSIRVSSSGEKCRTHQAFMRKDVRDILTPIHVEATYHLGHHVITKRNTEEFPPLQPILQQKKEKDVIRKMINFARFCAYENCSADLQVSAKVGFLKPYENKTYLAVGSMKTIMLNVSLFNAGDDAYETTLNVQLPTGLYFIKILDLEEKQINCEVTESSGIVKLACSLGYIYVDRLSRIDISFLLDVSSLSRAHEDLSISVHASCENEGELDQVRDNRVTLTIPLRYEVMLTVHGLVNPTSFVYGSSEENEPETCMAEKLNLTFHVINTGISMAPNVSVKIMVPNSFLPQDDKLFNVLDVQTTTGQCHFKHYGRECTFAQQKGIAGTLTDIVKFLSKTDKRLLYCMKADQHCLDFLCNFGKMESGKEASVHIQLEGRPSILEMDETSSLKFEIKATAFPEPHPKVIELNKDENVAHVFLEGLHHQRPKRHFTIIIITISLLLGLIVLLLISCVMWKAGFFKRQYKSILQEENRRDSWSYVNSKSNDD

[2] = molecular target: T2, integrin b7 subunit (mouse (endogenous in TK1)) (UniProt P26011); assay: condition: only cations depleted by 20 mM EDTA and EGTA each; co-IP; as a1 but lysis buffer depleted of cations by 20 mM EDTA and EGTA each
T2 sequence (chain, surface radioiodinated (lactoperoxidase method)): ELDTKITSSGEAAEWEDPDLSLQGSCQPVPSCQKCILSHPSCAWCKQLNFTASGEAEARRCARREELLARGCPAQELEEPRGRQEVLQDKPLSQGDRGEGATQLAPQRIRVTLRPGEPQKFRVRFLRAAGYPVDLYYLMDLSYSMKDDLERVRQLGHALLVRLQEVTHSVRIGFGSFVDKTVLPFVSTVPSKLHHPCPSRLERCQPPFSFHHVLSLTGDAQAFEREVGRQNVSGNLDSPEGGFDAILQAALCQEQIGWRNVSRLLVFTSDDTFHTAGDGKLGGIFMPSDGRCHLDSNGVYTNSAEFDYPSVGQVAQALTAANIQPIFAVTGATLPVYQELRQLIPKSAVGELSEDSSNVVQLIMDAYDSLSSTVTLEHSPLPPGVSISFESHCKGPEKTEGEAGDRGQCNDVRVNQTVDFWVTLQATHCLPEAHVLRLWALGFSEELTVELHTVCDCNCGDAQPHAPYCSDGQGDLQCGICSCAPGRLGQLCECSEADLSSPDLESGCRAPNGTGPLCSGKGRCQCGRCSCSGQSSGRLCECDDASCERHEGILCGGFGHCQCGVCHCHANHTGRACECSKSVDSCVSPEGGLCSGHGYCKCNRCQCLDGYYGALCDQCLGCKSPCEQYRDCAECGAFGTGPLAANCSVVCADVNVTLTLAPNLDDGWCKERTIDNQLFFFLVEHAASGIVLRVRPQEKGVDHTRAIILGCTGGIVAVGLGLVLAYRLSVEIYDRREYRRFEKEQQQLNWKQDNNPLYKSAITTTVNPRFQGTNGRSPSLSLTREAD

[3] = molecular target: T2, integrin b7 subunit (mouse (endogenous in TK1)); assay: co-IP; surface-iodinated TK1 cells, 1% NP-40 lysis buffer supplemented with 5 mM CaCl2, MgCl2 and MnCl2 each; precleared lysate precipitated with SG31-, PS/2- (anti-a4) or M293- (anti-b7) coupled Affi-gel 10 beads; SDS-PAGE non-reducing, autoradiography; bands named by size
[4] = molecular target: T1, integrin a4 subunit (uncleaved, a4 150) (mouse (endogenous in TK1 and 38B9)); assay: condition: only cations depleted by 20 mM EDTA and EGTA each; co-IP; as a1 but lysis buffer depleted of cations by 20 mM EDTA and EGTA each
[5] = molecular target: T1, integrin a4 subunit (uncleaved, a4 150) (mouse (endogenous in TK1 and 38B9)); assay: co-IP; surface-iodinated TK1 cells, 1% NP-40 lysis buffer supplemented with 5 mM CaCl2, MgCl2 and MnCl2 each; precleared lysate precipitated with SG31-, PS/2- (anti-a4) or M293- (anti-b7) coupled Affi-gel 10 beads; SDS-PAGE non-reducing, autoradiography; bands named by size

- binding [1]: binds
Molecule: integrin b1 subunit (from UniProt P09055 21-798)

- binding [2]: no binding
- binding [3]: binds
B1: integrin a4 subunit (uncleaved, a4 150) (protein, UniProt Q00651 41-1039)
chain: T1 sequence (chain, surface radioiodinated (lactoperoxidase method))
modifications: surface radioiodinated (lactoperoxidase method)

- binding [4]: no binding
- binding [5]: binds
B2: integrin b7 subunit (protein, UniProt P26011 20-806)
chain: T2 sequence (chain, surface radioiodinated (lactoperoxidase method))
modifications: surface radioiodinated (lactoperoxidase method)
